# In PubChem BioAssay AID1347428 (National Center for Advancing Translational Sciences (NCATS), 2020):
# Where “and” joins values, the source holds several entries; their conditions need not be identical. Equal values may be shown once. Screen size: about 91,000 compounds; about 290 (0.32%) were called active. This list was built around the results that the source calls inconclusive (neither active nor inactive); the mix of calls is not that of the screen. Calls follow the shape of the dose curve; as a rule, active = well fitted inhibition curve with a large enough effect; inconclusive = small, poorly fitted or top-dose-only effect; inactive = no such curve, though single readings can be large or run the other way. A potency beside an inconclusive call is a rough fit, not a confirmed value.
# Biological target: Single-stranded DNA cytosine deaminase (Homo sapiens) (UniProt Q9GZX7)
# UniProt Q9GZX7, sequence (Q9GZX7 whole entry, looked up): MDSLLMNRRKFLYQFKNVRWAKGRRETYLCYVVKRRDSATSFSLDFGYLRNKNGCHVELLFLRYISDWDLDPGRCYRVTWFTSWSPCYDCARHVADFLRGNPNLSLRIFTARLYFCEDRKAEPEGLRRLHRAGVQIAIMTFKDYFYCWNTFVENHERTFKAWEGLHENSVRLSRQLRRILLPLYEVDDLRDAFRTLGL
# Experiment: Primary qHTS assay for inhibitors of Activation Induced Cytidine Deaminase (AID): AID signal; also: nearly all actives have a fitted effect of over 25% in size
# Conditions: AID deamination FRET fluorescence, UDG-coupled, 4 h; activity change, negative = inhibition: at 115 µM (top of the series)
# % is scaled to controls: 0 for no effect and ±100 for the full control effect; potency is read from the fitted curve at half-maximal effect; tags tell the direction and shape of the fitted curve.
Structure (SMILES),Potency,"activity change, negative = inhibition"
Cc1[nH]c2ccccc2c1C(c1ccccc1)c1ccc(Cl)s1 (stereo unspecified),"inconclusive: 15.8 µM [inhibitor, full curve, poor fit]",–
CSc1ccccc1NC(=O)CC(C)C,–,inactive: -6.65%
Cc1cccc(N2CCN(C(=O)C3CCCN(S(=O)(=O)c4ccc(Br)s4)C3)CC2)c1C (stereo unspecified),"inconclusive: 25.1 µM [inhibitor, full curve, poor fit]",–
O=C(Nc1cc2c(cc1Sc1ccccc1)OCCO2)c1ccc2c(c1)OCCCO2,"inconclusive: 56.2 µM [inhibitor, partial curve, poor fit]",–
CCOc1ccc(CCNC(=O)c2nc(-c3cccc(F)c3)n3c2CCCCC3)cc1OCC,active: 17.8 µM,–
CC(C)N(C(=O)c1cccc(I)c1)C(C)C,–,inactive: -3.82%
Cc1cccc(N2CCN(C(=O)CN3C(=O)COc4ccc(S(=O)(=O)N5CCC(C)CC5)cc43)CC2C)c1 (stereo unspecified),"inconclusive: 89.1 µM [inhibitor, single point]",–
COc1ccccc1CNC(=O)CSc1nc2nc(C)c(Cc3ccccc3Cl)c(C)n2n1,"inconclusive: 50.1 µM [inhibitor, partial curve, poor fit]",–
O=C(/C=C/c1cn(CC(O)CN2CCCCCC2)c2ccccc12)c1ccccc1 (stereo unspecified),"inconclusive: 50.1 µM [inhibitor, partial curve, poor fit]",–
CCCCCCOc1ccc(/C=C(/C#N)C(=O)c2ccccc2)cc1,"inconclusive: 56.2 µM [inhibitor, partial curve, poor fit]",–
COc1cc(C(=O)/C=C/c2ccc(Cl)cc2Cl)ccc1OCC(=O)O,"inconclusive: 44.7 µM [inhibitor, partial curve, poor fit]",–
CSc1ccc(CNC(=O)CCn2ccc3cc(S(=O)(=O)N4CCCC4)ccc32)cc1,"inconclusive: 89.1 µM [inhibitor, single point]",–
CCOc1ccccc1NC(=O)c1cccc2c1C(=O)N(C1CCCCC1)C2,"inconclusive: 20 µM [inhibitor, full curve]",–
Cc1cccc(Cn2c(CN3CCC(C(=O)NCCc4ccccc4)CC3)cc3ccccc32)c1,"inconclusive: 20 µM [inhibitor, partial curve, poor fit]",–
CCCCn1c(-c2ccc(S(=O)(=O)N3CCOCC3)cc2)csc1=Nc1ccccc1,"inconclusive: 50.1 µM [inhibitor, partial curve, poor fit]",–
Cc1ccc(Cl)cc1NC(=O)Cn1c(=O)c(CNc2ccccc2)cc2cc3c(cc21)OCCO3,"inconclusive: 100 µM [inhibitor, single point]",–
N#Cc1ccsc1NC(=O)CSc1nnc(-c2ccccc2F)n1C1CCCCC1,–,inactive: 2.83%
CCc1ccc(-c2nn(C)c(=O)c3c2CCCC3)cc1S(=O)(=O)Nc1cccc(F)c1,–,inactive: -6.7%
CCCC(=O)N1CC(=O)Nc2ccc(Cl)cc2C1c1ccc(F)cc1 (stereo unspecified),–,inactive: -10.6%
Cc1ccc(NC(=O)COc2ncnc3ccc(Br)cc23)c([N+](=O)[O-])c1,–,inactive: -10.3%
Cc1nc2c(C(=O)NCc3ccccc3Cl)cnn2c(C)c1Cc1c(F)cccc1Cl,"inconclusive: 56.2 µM [inhibitor, partial curve, poor fit]",–
Cc1cccc(N(C)C(=O)CN2C(=O)COc3ccc(S(=O)(=O)N4CCCCCC4)cc32)c1,"inconclusive: 89.1 µM [inhibitor, single point]",–

Structure (SMILES),Potency,"activity change, negative = inhibition"
COC(=O)c1ccc(OC(=O)c2cc(OC)cc(OC)c2)cc1,–,inactive: -5.48%
O=C1C(=O)N(CCc2ccccc2)C(c2ccc(Cl)cc2)/C1=C(\O)c1ccc2c(c1)OCCO2 (stereo unspecified),"inconclusive: 63.1 µM [inhibitor, partial curve, poor fit]",–
COc1ccc(OCc2nc3ccccc3n2C(C)c2ccccc2)cc1 (stereo unspecified),"inconclusive: 100 µM [inhibitor, single point]",–
Cc1ccc(/C=C/C(=O)NC2CCc3ccccc32)o1 (stereo unspecified),–,inactive: 11.6%
CCN(c1ccccc1)S(=O)(=O)c1cc(-c2onc(C)c2C)ccc1OC,"inconclusive: 20 µM [inhibitor, full curve, poor fit]",–
CN(CCOc1ccc(Cl)cc1)Cc1cc(=O)oc2cc(O)c(Cl)cc12,–,inactive: -8.34%
Cc1ccc(C(=O)Nc2cc(-c3nc4ccccc4s3)ccc2C)cc1,–,inactive: -2.17%
O=C1O/C(=C/Br)CCC1c1cccc2ccccc12 (stereo unspecified),"inconclusive: 56.2 µM [inhibitor, partial curve]",–
CCCCCCCCCSCc1ccc(C(=O)O)o1,"inconclusive: 79.4 µM [inhibitor, partial curve, poor fit]",–
CCn1cc(C(=O)NCCCOC(C)C)c(=O)c2cc(S(=O)(=O)N3CCc4ccccc4C3)ccc21,"inconclusive: 39.8 µM [inhibitor, partial curve]",–
CSC1=N/C(=C\c2cccc(OCc3ccccc3)c2)C(=O)S1,–,inactive: -1.82%
CCCn1c(SCc2nc(-c3ccccc3C)no2)nnc1-c1ccc(Cl)cc1,"inconclusive: 25.1 µM [inhibitor, full curve]",–
CN(C)C(=O)COC(=O)c1cc(-c2cccs2)nc2ccccc12,–,inactive: 69.8%
COc1ccc(Cn2c(C(=O)O)c(CNCc3cccc(OC)c3)c3ccc(C)cc32)cc1,"inconclusive: 50.1 µM [inhibitor, partial curve, poor fit]",–
Cc1c(Br)cc(C(=O)NC2CC3CCC2(C)C3(C)C)c(C)c1C (stereo unspecified),–,inactive: -9.01%
CC(C)(C)c1ccc(C2Sc3ccccc3NC3=C2C(=O)c2ccccc23)cc1 (stereo unspecified),–,inactive: -12.9%
Cc1cc(C)cc(OCCn2c(C3CC(=O)N(c4ccccc4Cl)C3)nc3ccccc32)c1 (stereo unspecified),"inconclusive: 20 µM [inhibitor, full curve]",–
CC1=C(C(=O)Nc2ccccc2)C(c2ccccc2C)n2ncc(C(=O)Nc3ccccc3)c2N1 (stereo unspecified),"inconclusive: 50.1 µM [inhibitor, partial curve, poor fit]",–
Cn1ccnc1CN(C(=O)c1ccc(F)c(C(F)(F)F)c1)C1CC1,–,inactive: -1.47%
Cc1nc2ccccc2n1CCc1nc2c3ccccc3nc(SCc3cccc(F)c3)n2n1,"inconclusive: 100 µM [inhibitor, single point]",–
CC(C)Cn1c(SCC(=O)c2ccc(C#N)cc2)nnc1-c1ccccc1,–,inactive: -6.7%
CCOc1ccc(-n2c(SCc3nc(-c4ccc(OC)cc4)no3)nnc2-c2ccncc2)cc1,"inconclusive: 56.2 µM [inhibitor, partial curve, poor fit]",–

Structure (SMILES),Potency,"activity change, negative = inhibition"
COC(=O)NCC(=O)NC(c1ccccc1)C(C)C (stereo unspecified),–,inactive: 1.71%
COc1cccc(CNC(=O)CCc2c(C)c3ccc(O)c(C)c3oc2=O)c1,"inconclusive: 39.8 µM [inhibitor, single point]",–
CCOC(=O)c1noc2ncn(CC(=O)Nc3ccccc3OC)c(=O)c12,–,inactive: 66.6%
COC(=O)CSc1nc2c(c(-c3cccs3)c1C#N)CCCC2,–,inactive: -19.7%
Cc1cc(C)cc(Nc2nc3cc(Cl)c(Cl)cc3nc2-n2nc(C)cc2C)c1,"inconclusive: 100 µM [inhibitor, partial curve, poor fit]",–
CNc1nc(-c2ccccc2)c(C(=O)Nc2ccccc2)s1,–,inactive: 1.34%
O=c1[nH]c(C2CCCN(S(=O)(=O)c3ccccc3)C2)nc2c1nnn2Cc1ccc(OC(F)(F)F)cc1 (stereo unspecified),"inconclusive: 35.5 µM [inhibitor, partial curve, poor fit]",–
C#CC(C)(CC)NC(=O)Cn1nnc(-c2ccc(OCc3c(F)cccc3Cl)cc2)n1 (stereo unspecified),"inconclusive: 39.8 µM [inhibitor, full curve, poor fit]",–
COc1ccc(N(Cc2cccs2)C(=O)Nc2cccc(Cl)c2)cc1,"inconclusive: 25.1 µM [inhibitor, full curve, poor fit]",–
CCc1ccc(Nc2nnc(-n3nc(C)cc3C)c3ccccc23)cc1,–,inactive: 18.7%
CCCc1cnc2c(c1SCc1cccc(F)c1)c(=O)n(C)c(=O)n2C,"inconclusive: 2.82 µM [inhibitor, full curve, poor fit]",–
Cc1ccc(C(=O)c2cn(Cc3ccccc3C)c3nc(C)ccc3c2=O)cc1,"inconclusive: 22.4 µM [inhibitor, partial curve, poor fit]",–
COc1ccc(-c2coc3c2c(C)cc2oc(=O)c(CC(=O)O)c(C)c23)cc1,"inconclusive: 50.1 µM [inhibitor, partial curve, poor fit]",–
Cc1cc(N(CCO)Cc2ccccc2)n2nc(-c3ccc(C(C)(C)C)cc3)nc2n1,–,inactive: 40.8%
O=C(c1ccc(Br)cc1)N(Cc1cccs1)c1ccc(F)cc1,"inconclusive: 50.1 µM [inhibitor, partial curve, poor fit]",–
COc1cc2c(cc1OC)C(COc1ccc(F)cc1)N(C(=O)c1cccc(F)c1)CC2 (stereo unspecified),"inconclusive: 25.1 µM [inhibitor, full curve, poor fit]",–
Cc1ccc(C(CC(=O)Nc2ccc(C)cc2C)N2Cc3ccccc3C2=O)cc1 (stereo unspecified),"inconclusive: 12.6 µM [inhibitor, full curve, poor fit]",–
CNC12CC3CC(CC(S)(C3)C1)C2,–,inactive: -1.8%
CCOC(=O)c1cccc(NC(=O)C2CCN(c3nnc(C)c4c(C)n(-c5ccccc5)nc34)CC2)c1,"inconclusive: 79.4 µM [inhibitor, partial curve, poor fit] and inconclusive: 56.2 µM [inhibitor, partial curve, poor fit]",–
CC1=C(C(=O)OC(C)(C)C)C(c2ccc(C(C)C)cc2)NC(=S)N1 (stereo unspecified),–,inactive: 1.93%
Cc1cc(C)cc(NC(=O)Cn2nnc(C(=O)NCc3ccco3)c2N)c1,"inconclusive: 70.8 µM [inhibitor, partial curve, poor fit]",–
Cc1cc2oc(=O)cc(CN3CCN(c4ccccc4O)CC3)c2cc1Cl,–,inactive: -5.22%
